Source: PubChem BioAssay AID1832 (Broad Institute, 2009)
About 1,100 (0.37%) of roughly 300,000 compounds were called active. Inconclusive results, whose numbers are uncertain, are shown with a selection of clear calls.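 How the source made its calls: active means inhibition past about -25% in most replicates, and total fluorescence under double the plate's negative control median (limit read from the data); inconclusive means replicates evenly split on the limit, or fluorescence at least double controls; inactive means too little inhibition in most replicates.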

Each molecule was assayed against Zinc finger protein mex-5 (Caenorhabditis elegans) (UniProt Q9XUB2) (assay: MEX-5 zinc finger RNA-binding disruptors – biochemical, C. elegans, fluorescence polarization, MLPCN library, primary screen (AID 1832;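 further: 0% = DMSO and -100% = 5 µM competing unlabeled TCR2 RNA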)). Details: MEX-5/FITC-TCR2 RNA binding, at 10 µM, active compounds read low.
Sequence of UniProt Q9XUB2 (Q9XUB2 whole entry, looked up): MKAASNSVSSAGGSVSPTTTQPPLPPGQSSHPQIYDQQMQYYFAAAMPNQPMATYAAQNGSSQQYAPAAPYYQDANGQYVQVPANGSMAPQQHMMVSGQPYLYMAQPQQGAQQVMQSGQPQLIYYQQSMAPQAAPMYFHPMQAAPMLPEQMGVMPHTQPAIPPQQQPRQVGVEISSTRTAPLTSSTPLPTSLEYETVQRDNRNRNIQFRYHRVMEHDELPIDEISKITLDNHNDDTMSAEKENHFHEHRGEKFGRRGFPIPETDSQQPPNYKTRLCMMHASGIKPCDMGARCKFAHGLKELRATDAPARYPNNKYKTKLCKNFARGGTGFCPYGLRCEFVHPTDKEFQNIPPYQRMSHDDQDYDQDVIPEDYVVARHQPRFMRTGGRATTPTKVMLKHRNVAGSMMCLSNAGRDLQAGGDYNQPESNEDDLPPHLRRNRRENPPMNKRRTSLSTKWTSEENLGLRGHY

Activity score (negative = inhibition of binding), active:
O=c1cc(-c2ccc(O)c(O)c2)oc2cc(O)cc(O)c12 -32.8%
CCC(NC(C)C)C(O)c1ccc(O)c(O)c1 (stereo not given) -28.5%
O=C(O)c1ccc(-n2c(-c3cc(-c4ccco4)[nH]n3)n[nH]c2=S)cc1 -91.6%
CC(C)OCC(O)CN1CCN(CCN2C(=O)c3cccc4cccc(c34)C2=O)CC1 (stereo not given) -59.3%
Oc1ccc(N=Nc2ccccc2-c2nn[nH]n2)c(O)c1 -35.3%
CCN(CC)c1ccc(/C=C/c2nc3ccccc3s2)cc1 -31.8%
Cc1ccc2nc(-c3ccc(O)c(O)c3)cn2c1 -48.3%
N#C/C(=C\c1cc(O)c(O)c(O)c1)C(N)=O -26.8%
O=[N+]([O-])c1cccc(/C=C/c2nc(C=Nc3ccccc3)c(O)o2)c1 -42.6%
CN(C)c1ccc2nc3ccc(=[N+](C)C)cc-3sc2c1 -32.8%

Activity score (negative = inhibition of binding), inconclusive:
N=C1/C(=C\c2coc3ccccc3c2=O)C(=O)N=C2SC=CN12 -47% [fluorescent]
CCOC(=O)/C(=C/C=C1\Sc2ccccc2N1CC)C(C)=O 58.9% [fluorescent]
Cc1ccc(NC(=O)CSc2nccc(=O)[nH]2)c(S(=O)(=O)N2CCOCC2)c1 -18.1%
C/C(=N\Nc1ncnc2sc(C)c(C)c12)c1ccccn1 -18.5%
N#Cc1c(N)nc(SCc2ccccc2)c(C#N)c1-c1ccco1 -23.1%
CCCCNc1ccc2c3c(cccc13)C(=O)N(CCCC)C2=O -114% [fluorescent]
CCCN1C=CC(=CC=C(C#N)C#N)C=C1 57.8% [fluorescent]
O=C(/C=C/c1c(Cl)cccc1Cl)N1CCOCC1 -12.8%
CCOC(=O)c1c(NC(=O)Nc2ccc(F)cc2)sc2c1CCN(C)C2 -9.59%
O=C(O)c1cc(-c2ccc(/C=C3\NC(=O)N(c4ccc(Cl)cc4)C3=O)o2)ccc1Cl -23.7%
COC(=O)c1c(C(=O)OC)c2n(c1C)Cc1ccccc1C2 -23.2%
Cc1ccc(C)c(S(=O)(=O)C(C#N)c2nc3ccccc3nc2N2CC(C)OC(C)C2)c1 (stereo not given) -60.3% [fluorescent]
COc1cc(/C=C2\SC(=S)N(NC(=O)c3ccc(O)c(OC)c3)C2=O)ccc1O 60.8% [fluorescent]
Cc1cc(C(=O)O)ccc1-c1ccc(/C=C2\NC(=O)N(Cc3ccc(F)cc3)C2=O)o1 -17.7%
CCOC(=O)N1CCC(NC(=O)C(Cc2ccccc2)NC(=O)C2CCCCC2)CC1 (stereo not given) -13.1%
N#Cc1cc(C(=O)c2cc(F)ccc2O)cn(-c2nccs2)c1=O -30.2% [fluorescent]
CCn1c2ccccc2c2cc(NC(=O)c3coc(=O)c(Br)c3)ccc21 -62.5% [fluorescent]
CC1=CC2=NC(=O)/C(=C/c3coc4ccccc4c3=O)C(=N)N2O1 -30.8% [fluorescent]
CN(C)c1ccc(/C=C/C(=O)c2cccc(Br)c2)cc1 -15.7%
CCCCNc1c(N)n(CCCC)c(=O)[nH]c1=O -22.5%
Nc1nc(-c2ccc(Cl)cc2)nnc1-c1ccc(Br)cc1 -18.5%
O=C1c2cccc3c(O)ccc(c23)C(=O)N1Cc1ccccc1 -16.5%
C=CCSC1=N/C(=C\c2cc(OC)c3c(c2)OCO3)C(=O)S1 -101% [fluorescent]
Cc1ccc(-c2ccc(/C=C(\C#N)C(=O)Nc3cc(C)nn3-c3ccccc3)o2)cc1 -148% [fluorescent]
CCN(CC)c1ccc(/C=C/c2cccc[n+]2C)c(OC)c1 80.1% [fluorescent]
O=c1[nH]c2ccc([N+](=O)[O-])cc2nc1/C=C(\O)c1ccccc1 -20.6%
Nc1nnc(C(=O)c2ccccc2N)s1 -25%
COC(=O)C1=C(C)N(c2ccc(Cl)cc2)/C(=C/c2cccs2)C1=O -16.6%

Activity score (negative = inhibition of binding), inactive:
COc1ccc(N=c2oc3cc(O)ccc3cc2C(=O)Nc2ccccn2)cc1OC -5.43%
C[N+]1(CC(=O)Nc2ccc(F)cc2)CCN(C(=O)c2ccco2)CC1 0.517%
Cc1cc[n+](-c2nc3ccccc3nc2[N-]S(=O)(=O)c2ccccc2)cc1 0.0916%
COCCNC(=O)c1c(N)sc2c1CCCC2 4.78%
CC(C)(C)OC(=O)N1CCC(C(=O)N2CCC[C@H]2C(=O)O)CC1 -2.3%
CCc1ccc(C(=O)/C=C/Nc2ccc(S(=O)(=O)Nc3onc(C)c3C)cc2)cc1 2.42%
Cc1ccnc(N2C(=O)c3ccccc3C2=O)c1 -0.0862%
C=CCN(CC=C)C(=O)c1ccc(OC2CCN(C(C)=O)CC2)c(OC)c1 1.4%
COc1ccc(OC)c(CCNC(=O)CC2(CC3=NS(=O)(=O)c4ccccc4N3)CCCC2)c1 1.58%
CCCCOc1ccc(Nc2cc(Cl)ccc2C(=O)O)cn1 -6.84%
O=C(COc1ccc(Cl)cc1Cl)NN1C(=O)C2C3C=CC(C3)C2C1=O (stereo not given) 0.95%
CC(C)CN(C(=O)COC(=O)CCCc1c[nH]c2ccccc12)c1c(N)n(Cc2ccccc2)c(=O)[nH]c1=O -0.949%
O=C(c1ccccc1Cc1ccccc1)N1CCN(S(=O)(=O)c2ccccc2Br)CC1 -2.14%
O=C(NNC(=S)NC(=O)c1ccccc1[N+](=O)[O-])c1ccc(Cl)cc1Cl -8.86%
CCN(CC(=O)Nc1c(F)cccc1F)C(=O)CC1CCCC1 -0.135%
Cc1ccc2cc3c(NC(=O)C(C)C)nn(C)c3nc2c1 -0.496%
N=c1c(C(=O)NC2CCCC2)cc2c(=O)n3ccccc3nc2n1CC1CCCO1 (stereo not given) 0.722%
